Hit rate of the full screen: of about 360,000 compounds, about 740 (0.21%) were called active. The inconclusive results got no clear call from the source; some entries with a clear call stand among them for comparison. Calls come from the whole dose curve; as a rule, active = well fitted inhibition curve with a large enough effect; inconclusive = small, poorly fitted or top-dose-only effect; inactive = no such curve, though single readings can be large or run the other way. Potencies of inconclusive entries are left out as doubtful fits.
Tested on: Plasmodium falciparum AMA1 (3D7) - RON2 peptide interaction
Experiment: qHTS for Inhibitors of AMA1-RON; Towards Development of Antimalarial Drug Lead: Primary Screen; note: nearly all actives have a fitted effect of over 45% in size;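 for activity change, negative = inhibition: 0% = vehicle wells and -100% = peptide control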
Conditions: AlphaScreen AMA1-biotinylated RON2 peptide binding; activity change, negative = inhibition: at 58.2 µM (top of the series) unless noted
Summary of the method: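 AMA1 (3D7) with his tag at 25 nM final met compounds first, then biotinylated RON2 peptide at 25 nM; detection used donor plus acceptor beads, 10 µg/mL apiece, read by AlphaScreen after 30 min at room temperature.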
Potency is the fitted concentration of half-maximal effect; tags give direction and shape of the fitted curve.

| Structure (SMILES) | Potency | activity change, negative = inhibition |
| --- | --- | --- |
| COc1cc(/C=C2\SC(=S)N(NC(=O)c3ccc(O)cc3)C2=O)ccc1O | inconclusive [inhibitor, single point] |  |
| NC(=O)CSc1nnc(-c2cnccn2)n1Cc1ccco1 | inconclusive [inhibitor, partial curve, poor fit] |  |
| CCOC(=O)CCCCC(=O)c1[nH]c(=O)[nH]c1CSc1nc(C)cc(C)n1 | inactive |  |
| COc1ccc(N=C2C(=O)Nc3ccc(C)c(Br)c32)cc1 | inconclusive [inhibitor, partial curve] |  |
| C=CCOC(=O)C1=C(C)OC(N)=C(C#N)C1c1ccc(OC)c(CSc2ccccn2)c1 (stereo unspecified) | inactive |  |
| CC(C)N1CCN(Cc2cc(F)ccc2-n2cccn2)CC1CCO (stereo unspecified) | inactive |  |
| COc1cc(CCC(=O)N2CCN(S(=O)(=O)c3ccc(C)cc3)CC2)cc(OC)c1OC | inactive |  |
| CCCCCn1cnc2sc(-c3ccccc3)cc2c1=O | inactive |  |
| NC(=O)COC(=O)CNC(=O)c1sc2ccccc2c1Cl | inconclusive [inhibitor, single point] |  |
| CC(=O)NC(Cc1ccc(N(CCCl)CCCl)cc1)C(=O)NC(CC(C)C)C(=O)O (stereo unspecified) | inactive |  |
| O=C1CC(c2ccccc2)n2nc(N3C(=O)CCC3=O)nc2N1 (stereo unspecified) | inconclusive [inhibitor, partial curve] |  |
| Cc1ccc(NC(=S)N2CCN(Cc3ccc4c(c3)OCO4)CC2)c(C)c1 | inconclusive [inhibitor, single point] |  |
| C=CCN=C1S/C(=C\c2ccc(Cl)cc2)C(=O)N1CC=C | inactive |  |
| Cc1ccc(C(=O)c2coc3cc([N+](=O)[O-])c(O)c([N+](=O)[O-])c23)cc1 | inconclusive [inhibitor, single point] |  |
| Cc1nc(NC(=O)C2CC2)sc1C(=O)N1CCCCC1 |  | inconclusive: -5.17% [inhibitor] |
| Cc1oc(-c2ccccc2F)nc1CS(=O)(=O)CC(=O)N1CCOCC1 | inactive |  |
| Cc1cc(N2C(=O)C3C4CCC(C4)C3C2=O)no1 (stereo unspecified) | inconclusive [inhibitor, single point] |  |
| CN(C)c1ccc(/C=C(\NC(=O)c2ccccc2)C(=O)NCCCn2ccnc2)cc1 | inconclusive [inhibitor, partial curve] |  |
| CN1CCN(CC(=O)Nc2ccccc2C(F)(F)F)CC1 | inconclusive [inhibitor, partial curve] |  |
| O=C(/C=C/c1ccc(N2CCCCC2)c([N+](=O)[O-])c1)c1ccc(O)cc1 | inconclusive [inhibitor, partial curve] |  |
| CCOc1cc(N2CCOCC2)c(OCC)cc1NC(=O)c1cccc(N(C)C)c1 | inconclusive [inhibitor, single point] |  |
| CC(=O)C(=Nc1ccc(Cl)cc1Cl)NNc1cccc(Cl)c1 | inconclusive [inhibitor, partial curve] |  |
| CC1CCC2(CC1)OCC1(CCC3(COC4(CCC(C)CC4)OC3)C1=O)CO2 (stereo unspecified) | inconclusive [inhibitor, partial curve] |  |
| COc1cc(CNCc2ccccc2C(F)(F)F)cc(OC)c1 | inconclusive [inhibitor, single point] |  |

| Structure (SMILES) | Potency | activity change, negative = inhibition |
| --- | --- | --- |
| Cc1ccc(-c2csc(-c3c[nH]c4ccccc34)n2)cc1 | inconclusive [inhibitor, partial curve] |  |
| CN(C(=O)c1ccc(Br)o1)C1CCCCC1 | inactive |  |
| CN(CCOc1ccc(Cl)c(Cl)c1)Cc1ccccc1 | inconclusive [inhibitor, single point] |  |
| CCOC(=O)C1CCN(Cc2c(F)cccc2Cl)CC1 | inconclusive [inhibitor, single point] |  |
| CCN(CC)CCN(C(=O)c1ccc2c(c1)CCCC2)c1nc2ccc(C)cc2s1 | inactive |  |
| FC(F)(F)c1nc2ccccc2nc1N/N=C\c1ccccc1 | inconclusive [inhibitor, single point] |  |
| Cc1ccc(CSCc2ccc(C(=O)NCCCN3CCOCC3)o2)cc1 | inactive |  |
| COc1ccc(N(CC(=O)NCCSc2ccccc2)S(=O)(=O)c2ccccc2)c(OC)c1 | inconclusive [inhibitor, partial curve] |  |
| COc1cccc(N2CCN(Cc3nc4ccccc4c(=O)[nH]3)CC2)c1 | inactive |  |
| Cc1ccc(Cc2cnc(N)s2)o1 | inconclusive [inhibitor, single point] |  |
| Cc1ccc(C)n1-c1ccc(C(=O)Nc2ccccc2)cc1 | inactive |  |
| N#Cc1ccc(NC(=O)N2CCC(c3nc4c(nnn4Cc4cccc(Cl)c4)c(=O)[nH]3)CC2)cc1 | inconclusive [inhibitor, single point] |  |
| Cc1cc(C(c2cc(C)c(N)c(C)c2)c2ccco2)cc(C)c1N | inconclusive [inhibitor, partial curve, poor fit] |  |
| COc1ccc(N2CCN(c3nc4cc(C)ccc4cc3C=O)CC2)cc1 | inconclusive [inhibitor, full curve] |  |
| COc1ccc(C(CCN2CCN(c3ccccc3)CC2)c2c(O)cc(OC)cc2OC)cc1 (stereo unspecified) | inconclusive [inhibitor, single point] |  |
| Nc1cccc(-n2nncc2-c2ccccc2)c1 | inconclusive [inhibitor, partial curve] |  |
| Cc1ccccc1/C=N/N1CCN(c2ccccc2)CC1 | inconclusive [inhibitor, partial curve] |  |
| CCCc1cc2c(cc1NC(=O)c1ccc(C(C)(C)C)cc1)OCO2 | inconclusive [inhibitor, partial curve] |  |
| Cc1ccnc(N2C(=O)c3ccccc3C2O)c1 (stereo unspecified) | inactive |  |
| Cc1ccc(NC(=O)Cn2nnc(-c3ccc4c(c3)OCO4)n2)cc1F | inactive |  |
| O=C1CC(N2CCC(c3nc4ccccc4o3)CC2)C(=O)N1c1ccc(F)cc1 (stereo unspecified) | inactive |  |
| C[C@@H]1CN([C@H](C)CO)C(=O)c2cc(NC(=O)Nc3ccc4c(c3)OCO4)ccc2O[C@H]1CN(C)Cc1ccncc1 | inactive |  |
| Cc1[nH]n(-c2ccccc2)c(=O)c1N=Nc1ccc(C(N)=O)cc1 | inactive |  |
| CCCCSCc1[nH]c(=O)[nH]c1C(=O)CCCCC(=O)OCC | inconclusive [inhibitor, single point] |  |

| Structure (SMILES) | Potency | activity change, negative = inhibition |
| --- | --- | --- |
| COc1ccc(-n2c(N)c(C(=O)NCc3ccco3)c3nc4ccccc4nc32)cc1OC | inactive |  |
| COc1ccccc1CNC(=O)Cn1c(=O)oc2cc(Cl)ccc21 | inconclusive [inhibitor, partial curve, poor fit] |  |
| CCCCOc1ccc(C(=O)NCCOc2cccc(OC)c2)cc1 | inactive |  |
| O=[N+]([O-])c1ccc(N/N=C\c2cccn2-c2ccccc2)nc1 | inconclusive [inhibitor, single point] |  |
| O=C(c1nc[nH]c1C(=O)N1CCN(c2ccccc2)CC1)N1CCN(c2ccccc2)CC1 | inconclusive [inhibitor, partial curve, poor fit] |  |
| O=C(NCCCn1ccnc1)Nc1ccc(Cl)c(Cl)c1 | inconclusive [inhibitor, partial curve] |  |
| CN1CCN(C(=O)Nc2ccccc2CC[N+](=O)[O-])CC1 | inactive |  |
| CC(C)C(OC(=O)CCCC(=O)Nc1nccs1)C(=O)NC1CCCCC1 (stereo unspecified) | inactive |  |
| COC(=O)c1sccc1NC(=O)c1ccc(C)o1 | inconclusive [inhibitor, partial curve] |  |
| CCN(CC)CCNC(=O)Cn1nc(-c2ccc(C)cc2)ccc1=O | inconclusive [inhibitor, partial curve] |  |
| COc1ccc2c(c1)C(C)CC(C)(C)N2C(=O)NC1CCCCC1 (stereo unspecified) | inconclusive [inhibitor, partial curve] |  |
| CC(/C=C1\SC(=S)N(CC(=O)N2CCN(c3ccccc3)CC2)C1=O)=C\c1ccccc1 | inconclusive [inhibitor, full curve, poor fit] |  |
| COc1ccc(C(=O)C2CCCN(Cc3ccc(C)s3)C2)c(OC)c1 (stereo unspecified) | inconclusive [inhibitor, partial curve] |  |
| COc1ccc(CNc2oc(-c3ccccc3)nc2C#N)cc1 | inconclusive [inhibitor, single point] |  |
| CCCCN1C(=O)c2ccc(C(=O)Nc3c(N)n(CCCC)c(=O)n(C)c3=O)cc2C1=O | inconclusive [inhibitor, partial curve] |  |
| Cc1cccc(NC(=O)c2ccc(C(=O)c3ccccc3)o2)c1 | inconclusive [inhibitor, partial curve, poor fit] |  |
| CC1=C(C(=O)N(C)C)CC(CC(=O)NCCN2CCOCC2)C(=O)N1CCCN1CCCC1=O (stereo unspecified) | inactive |  |
| CS(=O)(=O)OCCCCOS(C)(=O)=O | inconclusive [inhibitor, single point] |  |
| CCc1nc2ccc(C(=O)NCCc3c[nH]c4ccccc34)cn2c1N(C)Cc1ccc(N(C)C)cc1 | inconclusive [inhibitor, partial curve] |  |
| O=[N+]([O-])c1cc([N+](=O)[O-])c(Oc2cccnc2Br)cc1NN1CCCCC1 | inconclusive [inhibitor, partial curve] |  |
| COc1ccc(N)c2c1C(=O)c1ccccc1C2=O | inconclusive [inhibitor, partial curve] |  |
| CCCOc1ccc(N2C(=O)C3ON(c4ccccc4)C(CCC)C3C2=O)cc1 (stereo unspecified) | inactive |  |
| CCc1ccc2nc(N(CCCN(C)C)C(=O)c3ccc(S(=O)(=O)N4CCCc5ccccc54)cc3)sc2c1 | inconclusive [inhibitor, partial curve] |  |
